From patent US11242407B2, “High-affinity anti-MERTK antibodies and uses thereof” (Rgenix, Inc., priority 2019, dated 2022)
“Also recorded” adds a separate entry of the source.

Tests used:
[1] = target: T1, MERTK (Homo sapiens, UniProt Q12866); experiment: Western blot of MERTK degradation in in vitro differentiated M2 macrophages; type: cell-based; parameters: MERTK expressing melanoma cells (SKMEL5) were incubated with increasing concentrations; host or cells: SKMEL5 human melanoma cells; conditions: 0.3 μg/mL
T1 sequence (Q12866 21-999): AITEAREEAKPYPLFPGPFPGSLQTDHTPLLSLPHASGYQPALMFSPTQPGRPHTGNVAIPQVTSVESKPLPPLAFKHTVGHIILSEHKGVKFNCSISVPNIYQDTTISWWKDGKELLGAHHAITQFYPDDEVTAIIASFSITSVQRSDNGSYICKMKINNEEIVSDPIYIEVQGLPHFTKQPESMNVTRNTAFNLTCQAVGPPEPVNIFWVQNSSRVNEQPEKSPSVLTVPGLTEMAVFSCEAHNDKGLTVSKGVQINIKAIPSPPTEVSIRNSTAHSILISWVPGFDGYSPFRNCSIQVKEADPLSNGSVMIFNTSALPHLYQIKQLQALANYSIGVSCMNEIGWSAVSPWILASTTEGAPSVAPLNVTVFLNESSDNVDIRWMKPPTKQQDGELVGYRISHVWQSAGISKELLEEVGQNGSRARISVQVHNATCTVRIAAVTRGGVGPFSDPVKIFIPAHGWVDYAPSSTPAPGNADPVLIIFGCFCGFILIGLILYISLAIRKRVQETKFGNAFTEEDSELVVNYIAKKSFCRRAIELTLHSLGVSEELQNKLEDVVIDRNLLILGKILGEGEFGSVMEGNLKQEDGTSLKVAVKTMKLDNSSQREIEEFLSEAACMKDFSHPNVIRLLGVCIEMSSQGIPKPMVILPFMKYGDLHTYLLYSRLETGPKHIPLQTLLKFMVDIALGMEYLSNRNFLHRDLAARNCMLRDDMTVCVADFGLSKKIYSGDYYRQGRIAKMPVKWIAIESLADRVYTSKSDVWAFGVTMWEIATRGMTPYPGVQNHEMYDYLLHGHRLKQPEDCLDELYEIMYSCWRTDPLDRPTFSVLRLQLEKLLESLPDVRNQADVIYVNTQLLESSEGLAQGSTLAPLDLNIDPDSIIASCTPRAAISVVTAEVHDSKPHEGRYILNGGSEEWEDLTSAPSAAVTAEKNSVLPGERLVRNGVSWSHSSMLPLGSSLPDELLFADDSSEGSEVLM
Method: PBMC-Derived Cell Culture and Macrophage Differentiation
The intermediate layer containing PBMCs was collected and cells washed with PBS with 2 mM EDTA three times. […] To measure cytokines, cell culture supernatants were collected and sent to Eve Technologies, Canada for Human Cytokine/Chemokine Array (HD42) analysis.
Whole-cell lysates were prepared in RIPA buffer (Sigma, 20-188) containing protease inhibitor (Sigma, 4693159001) and phosphatase inhibitor (Sigma, P2850 and P5726). Protein concentrations were measured using BCA Protein Assay Kit (ThermoFisher, 23225). Equal protein amounts were loaded on 4-20% Tris-Glycine gel (Bio-Rad, 4561094), then transferred to PVDF membranes (Bio-Rad, 1620177). After blocking with 5% BSA, membranes were probed with primary antibodies for 1 hr at room temperature. Bound antibodies were detected with HRP-conjugated secondary antibodies (Sigma, AP187P and AP181P) and visualized by ECL Western Blotting Substrate (ThermoFisher, 32106), using ChemiDoc Imaging Systems (Bio-Rad).

[2] = test system: MDA-MB-231-LM2 TNBC cells; experiment: Metastasis assay, z10 naked antibody; type: in vivo; conditions: 50,000 cells into tail vein of NSG mice; twice/week i.p. from day of inoculation
Method: MDA-MB-231 LM2 TR triple negative breast cancer cells (received from Prof. Sohail Tavazoie, Rockefeller University, NYC) harboring a luciferase reporter gene (Minn et al., Nature. 2005 Jul. 28; 436(7050): 518-524) were cultured in D10F culture medium (DMEM Life Technologies, 11965-092), 10% FBS (Sigma, F4135-500 ml), 1% NEAA (Fisher, 11140-050), 1% sodium pyruvate (Fisher, 11360-070), 1% Hepes (Fisher, 15630-080) and 1% Pen/Strep (Fisher, 15140-122). On the day of injection, cells were washed with DPBS (Fisher, 14190-144) and detached using 3 mL of 0.25% Trypsin-EDTA (Fisher, 25200-056) per 15 cm cell culture dish for 5 min in a 37° C. cell culture incubator. Detached cells were resuspended in 5 mL of D10F, counted using a hemocytometer and centrifuged at 220×g for 5 min at room temperature. The pellet was resuspended in DPBS at a concentration of 500,000 cells/mL. 8-week-old NSG female mice (Jackson, 005557) were exposed to a small animal heat lamp (Morganville Scientific, HL0100) for 2-3 minutes. 100 μl of the cell suspension (50'000 cells) was injected into the dilated lateral tail vein of female 8-week old NSG mice. […] Lung colonization was monitored using IVIS imaging upon i.p. administration of 150 mg/kg D-luciferin (Thermofisher Scientific, Waltham, Mass.). […] Mann-Whitney U-test, one tailed was used to assess significance of the metastasis as measured by bioluminescence imaging.

[3] = target: T1, MERTK; experiment: Internalization assay of z10 and ADCs (pHrodo, surface MERTK by flow cytometry); type: cell-based; parameters: stained with BV421-conjugated antibodies against MERTK to detect surface MERTK levels; endogenous in cells; host or cells: SKMEL5 human melanoma cells; conditions: SKMel5 cells
Method: Internalization of the antibody was determined by flow cytometry detecting pHrodo fluorescence, which is minimal at neutral pH and maximal in acidic environments, such as the lysosome.
The cells were trypsinized, strained through a 70 μm filter, and resuspended in FACS buffer (2% BSA, 10 mM EDTA, 25 mM HEPES, 0.1% sodium azide in Ca/Mg-free PBS) containing Human TruStain FcX blocking reagent (Biolegend, 422301). Cells were sequentially stained with BV421-conjugated antibodies against MERTK to detect surface MERTK levels (Biolegend, 367603) for 20 min on ice, and then stained with Fixable Viability Dye (eFluor 780) (Thermofisher, 65-0865-14) for 20 min on ice.
The Mean Fluorescence Intensities (MFI) of pHrodo and BV-421 were analyzed with LSRFortessa flow cytometer (BD Biosciences) and compensated data were plotted with GraphPad Prism. The MFI of pHrodo was normalized with Degree of Labeling (DOL) of pHrodo-labeled IgG, z10, z10-MMAE and z10-SN-38. DOL was calculated from A280 and A560 absorbance of the protein after labeling, according to the formula provided by the manufacturer.

B1: z10: humanized anti-MERTK antibody; heavy chain SEQ ID NO: 112, light chain SEQ ID NO: 113 (antibody)
heavy: QVQLVQSGAEVKKPGASVKVSCKASGYTFTNYGMNWVRQAPGQGLEWMGWINTYTGEPTYADDFKGRVTFTTDTSTSTAYMELRSLRSDDMAVYYCARKSTVVSRYFDVWGQGTTVTVSSASTKGPSVFPLAPSSKSTSGGTAALGCLVKDYFPEPVTVSWNSGALTSGVHTFPAVLQSSGLYSLSSVVTVPSSSLGTQTYICNVNHKPSNTKVDKRV[human IgG1 Fc omitted]
light: DIQMTQSPSFLSASVGDRVTITCKASQDVGDAVTWYQQKPGKAPKLLIYWASTRHTGVPDRFSGSGSGTDFTLTISSLQPEDFATYYCQQYRSYPLTFGQGTKLEIKRTVAAPSVFIFPPSDEQLKSGTASVVCLLNNFYPREAKVQWKVDNALQSGNSQESVTEQDSKDSTYSLSSTLTLSKADYEKHKVYACEVTHQGLSSPVTKSFNRGEC
modifications: Antibody z10 Heavy Chain; Antibody z10/z11/z13 Light Chain
decrease of human MERTK ([1]; after 8 hours): Even greater decreases
decrease of human MERTK ([1]; approximately 4 hours): more than 50%
tumor (lung colonization, IVIS imaging) [2]: tumor reduction
MERTK internalization ([3]; 6.7 nM pHrodo-labeled article): induce MERTK internalization
MERTK degradation ([3]; 6.7 nM, surface MERTK stained with BV421-conjugated MERTK antibody): degrade MERTK to a similar extent; also recorded: induce MERTK degradation
